Changes are numbered by the printed parent chain; changes in the protein carry UniProt numbers. This is one part of the list.
T1: RBFOX1 RRM RbFoxmut (Fox-RRM*) (Homo sapiens, UniProt Q9NWB1 109-208, R118D;E147R;N151S;E152T)
T1 sequence: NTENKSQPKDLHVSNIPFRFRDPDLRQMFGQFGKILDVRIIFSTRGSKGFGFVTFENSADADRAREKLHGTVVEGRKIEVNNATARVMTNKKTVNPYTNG

B1: UUUGCCG (DNA:RNA)
RNA: GGGAGACCGGAAUUCAGAUUGUCCUUUGCCGUUAAAUCCCGUCGUAGCCACCA
DNA 1: CAATCTGAATTCCGGTCTCCC
DNA 2: TGGTGGCTACGACGGGATT
B2: CAAUACA (DNA:RNA)
RNA: B1 RNA with U25C, U26A, U27A, G28U, C29A, G31A
DNA 1: CAATCTGAATTCCGGTCTCCC
DNA 2: TGGTGGCTACGACGGGATT
B3: AUAUAAA (DNA:RNA)
RNA: B1 RNA with U25A, U27A, G28U, C29A, C30A, G31A
DNA 1: CAATCTGAATTCCGGTCTCCC
DNA 2: TGGTGGCTACGACGGGATT
B4: GGAUUUG (DNA:RNA)
RNA: B1 RNA with U25G, U26G, U27A, G28U, C29U, C30U
DNA 1: CAATCTGAATTCCGGTCTCCC
DNA 2: TGGTGGCTACGACGGGATT
B5: UGGAGUU (DNA:RNA)
RNA: B1 RNA with U26G, U27G, G28A, C29G, C30U, G31U
DNA 1: CAATCTGAATTCCGGTCTCCC
DNA 2: TGGTGGCTACGACGGGATT
B6: CGGCACU (DNA:RNA)
RNA: B1 RNA with U25C, U26G, U27G, G28C, C29A, G31U
DNA 1: CAATCTGAATTCCGGTCTCCC
DNA 2: TGGTGGCTACGACGGGATT
B7: AAGGAUC (DNA:RNA)
RNA: B1 RNA with U25A, U26A, U27G, C29A, C30U, G31C
DNA 1: CAATCTGAATTCCGGTCTCCC
DNA 2: TGGTGGCTACGACGGGATT
B8: UUUAUCG (DNA:RNA)
RNA: B1 RNA with G28A, C29U
DNA 1: CAATCTGAATTCCGGTCTCCC
DNA 2: TGGTGGCTACGACGGGATT
B9: CUUUUCA (DNA:RNA)
RNA: B1 RNA with U25C, G28U, C29U, G31A
DNA 1: CAATCTGAATTCCGGTCTCCC
DNA 2: TGGTGGCTACGACGGGATT
B10: CAGUGCG (DNA:RNA)
RNA: B1 RNA with U25C, U26A, U27G, G28U, C29G
DNA 1: CAATCTGAATTCCGGTCTCCC
DNA 2: TGGTGGCTACGACGGGATT
B11: GGCGACC (DNA:RNA)
RNA: B1 RNA with U25G, U26G, U27C, C29A, G31C
DNA 1: CAATCTGAATTCCGGTCTCCC
DNA 2: TGGTGGCTACGACGGGATT
B12: GCCGGUG (DNA:RNA)
RNA: B1 RNA with U25G, U26C, U27C, C29G, C30U
DNA 1: CAATCTGAATTCCGGTCTCCC
DNA 2: TGGTGGCTACGACGGGATT
B13: UAACAGA (DNA:RNA)
RNA: B1 RNA with U26A, U27A, G28C, C29A, C30G, G31A
DNA 1: CAATCTGAATTCCGGTCTCCC
DNA 2: TGGTGGCTACGACGGGATT
B14: GAAACAA (DNA:RNA)
RNA: B1 RNA with U25G, U26A, U27A, G28A, C30A, G31A
DNA 1: CAATCTGAATTCCGGTCTCCC
DNA 2: TGGTGGCTACGACGGGATT
B15: CAACAUC (DNA:RNA)
RNA: GGGAGACCGGAAUUCAGAUUGUCCCAACAUCUUAAAUCCCGUCGUAGCCACCA
DNA 1: CAATCTGAATTCCGGTCTCCC
DNA 2: TGGTGGCTACGACGGGATT
B16: UAUGCCA (DNA:RNA)
RNA: B1 RNA with U26A, G31A
DNA 1: CAATCTGAATTCCGGTCTCCC
DNA 2: TGGTGGCTACGACGGGATT
B17: AGAUUAC (DNA:RNA)
RNA: B15 RNA with C25A, A26G, C28U, A29U, U30A
DNA 1: CAATCTGAATTCCGGTCTCCC
DNA 2: TGGTGGCTACGACGGGATT
B18: CAAGUAA (DNA:RNA)
RNA: B15 RNA with C28G, A29U, U30A, C31A
DNA 1: CAATCTGAATTCCGGTCTCCC
DNA 2: TGGTGGCTACGACGGGATT
B19: UAUAAAA (DNA:RNA)
RNA: B15 RNA with C25U, A27U, C28A, U30A, C31A
DNA 1: CAATCTGAATTCCGGTCTCCC
DNA 2: TGGTGGCTACGACGGGATT
B20: GGUGAAU (DNA:RNA)
RNA: B1 RNA with U25G, U26G, C29A, C30A, G31U
DNA 1: CAATCTGAATTCCGGTCTCCC
DNA 2: TGGTGGCTACGACGGGATT
B21: UAUCUCC (DNA:RNA)
RNA: B15 RNA with C25U, A27U, A29U, U30C
DNA 1: CAATCTGAATTCCGGTCTCCC
DNA 2: TGGTGGCTACGACGGGATT
B22: AGUGUGC (DNA:RNA)
RNA: B1 RNA with U25A, U26G, C29U, C30G, G31C
DNA 1: CAATCTGAATTCCGGTCTCCC
DNA 2: TGGTGGCTACGACGGGATT
B23: UGCCGUG (DNA:RNA)
RNA: B15 RNA with C25U, A26G, A27C, A29G, C31G
DNA 1: CAATCTGAATTCCGGTCTCCC
DNA 2: TGGTGGCTACGACGGGATT
B24: GUAACAA (DNA:RNA)
RNA: B1 RNA with U25G, U27A, G28A, C30A, G31A
DNA 1: CAATCTGAATTCCGGTCTCCC
DNA 2: TGGTGGCTACGACGGGATT
B25: CUGUGUA (DNA:RNA)
RNA: B15 RNA with A26U, A27G, C28U, A29G, C31A
DNA 1: CAATCTGAATTCCGGTCTCCC
DNA 2: TGGTGGCTACGACGGGATT
B26: CCUGGGG (DNA:RNA)
RNA: B1 RNA with U25C, U26C, C29G, C30G
DNA 1: CAATCTGAATTCCGGTCTCCC
DNA 2: TGGTGGCTACGACGGGATT
B27: UCCAUCU (DNA:RNA)
RNA: B1 RNA with U26C, U27C, G28A, C29U, G31U
DNA 1: CAATCTGAATTCCGGTCTCCC
DNA 2: TGGTGGCTACGACGGGATT
B28: AAGGUAA (DNA:RNA)
RNA: B15 RNA with C25A, A27G, C28G, A29U, U30A, C31A
DNA 1: CAATCTGAATTCCGGTCTCCC
DNA 2: TGGTGGCTACGACGGGATT
B29: CCAGUAG (DNA:RNA)
RNA: B15 RNA with A26C, C28G, A29U, U30A, C31G
DNA 1: CAATCTGAATTCCGGTCTCCC
DNA 2: TGGTGGCTACGACGGGATT
B30: UUAAAAC (DNA:RNA)
RNA: B15 RNA with C25U, A26U, C28A, U30A
DNA 1: CAATCTGAATTCCGGTCTCCC
DNA 2: TGGTGGCTACGACGGGATT
B31: AUUAUAA (DNA:RNA)
RNA: B1 RNA with U25A, G28A, C29U, C30A, G31A
DNA 1: CAATCTGAATTCCGGTCTCCC
DNA 2: TGGTGGCTACGACGGGATT

The binders below were run against T1, RBFOX1 RRM RbFoxmut (Fox-RRM*) (assay: EMSA; HiTS-Eq, 1 nM pool, 10 min; buffer printed only for the single-RNA assays: 10 mM Tris pH 7.5, 150 mM NaCl, 3.4 mM EDTA, 0.001% NP-40, 30 C). Details: tags: His6 N-terminal (pET28a); label: 5' 32P.
How it was run: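 A pool of RNA with 7 randomized nucleotides, 5′-radiolabelled and with DNA-annealed flanks, was equilibrated at 1 nM for 10 min in 50 µL with purified RbFox RRM, wild type or mutant, across increasing protein concentrations. Free RNA was separated by 8% native PAGE, excised, reverse-transcribed, barcoded by PCR and sequenced. Relative association constants were obtained from read-count changes of each RNA species versus the control reaction and normalised to the cognate motif.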
B1 was tested, and the binding signal was 0.13 KA relative to UGCAUGU.
For B2, the binding signal was 0.115 KA relative to UGCAUGU.
For B3, the binding signal was 0.128 KA relative to UGCAUGU.
For B4, the binding signal was 0.212 KA relative to UGCAUGU.
With B5 the binding signal was 0.105 KA relative to UGCAUGU.
With B6 the binding signal was 0.0631 KA relative to UGCAUGU.
For B7, the binding signal was 0.0772 KA relative to UGCAUGU.
With B8 the binding signal was 0.108 KA relative to UGCAUGU.
B9 was tested, and the binding signal was 0.0959 KA relative to UGCAUGU.
In the case of B10, the binding signal is reported as 0.148 KA relative to UGCAUGU.
In the case of B11, the binding signal is reported as 0.1 KA relative to UGCAUGU.
B12 was tested, and the binding signal was 0.112 KA relative to UGCAUGU.
B13 was tested, and the binding signal was 0.0377 KA relative to UGCAUGU.
With B14 the binding signal was 0.0537 KA relative to UGCAUGU.
With B15 the binding signal was 0.0476 KA relative to UGCAUGU.
In the case of B16, the binding signal is reported as 0.0821 KA relative to UGCAUGU.
In the case of B17, the binding signal is reported as 0.105 KA relative to UGCAUGU.
With B18 the binding signal was 0.112 KA relative to UGCAUGU.
B19 was tested, and the binding signal was 0.0497 KA relative to UGCAUGU.
B20 was tested, and the binding signal was 0.0936 KA relative to UGCAUGU.
With B21 the binding signal was 0.0612 KA relative to UGCAUGU.
With B22 the binding signal was 0.159 KA relative to UGCAUGU.
In the case of B23, the binding signal is reported as 0.185 KA relative to UGCAUGU.
B24 was tested, and the binding signal was 0.0914 KA relative to UGCAUGU.
B25 was tested, and the binding signal was 0.281 KA relative to UGCAUGU.
With B26 the binding signal was 0.0659 KA relative to UGCAUGU.
B27 was tested, and the binding signal was 0.077 KA relative to UGCAUGU.
For B28, the binding signal was 0.122 KA relative to UGCAUGU.
With B29 the binding signal was 0.154 KA relative to UGCAUGU.
With B30 the binding signal was 0.0741 KA relative to UGCAUGU.
In the case of B31, the binding signal is reported as 0.13 KA relative to UGCAUGU.

Reference: publication PMC9911399, “Two distinct binding modes provide the RNA-binding protein RbFox with extraordinary sequence specificity”
